Among all 330,000 compounds or so, about 2,600 (0.79%) were called active. Inconclusive means that the source gave no clear call. Such entries were picked first, then a sample of the others.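 The calls were made as follows: active = mean ATP rescue above about 67%, or every replicate alone reaching that limit (limit read from the data, passing the limit was not always enough); inconclusive = no clear call, values can overlap the other calls; inactive = mean under the limit and some replicate under it.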
experiment: suppressors of statin myotoxicity in C2C12 myotubes, primary screen, cell-based, single point, plate reader (AID 602340); conditions: C2C12 myotubes + simvastatin, ATP luminescence, 48 h; at 7.49 µM; active compounds read high; scaled: DMSO 0, geranylgeraniol control 100;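 also: myotubes were challenged with 10 µM simvastatin during compound exposure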

SMILES | rescue of ATP level
CC(C)(C)OC(=O)N1CCNc2ccccc2C1 | active: 95.6%
O=C(CN1CCOCC1)NCCNC(=O)CN1CCOCC1 | inactive: 7.02%
CCNC(=O)Nc1ccc2c(c1)C(=O)N(C)[C@H]1CC[C@@H](CC(=O)NCCOC)O[C@H]1CO2 | inactive: -3.47%
N#Cc1nc(-c2ccco2)oc1N1CCCC1 | active: 112%
CC(C)CC#Cc1ccc2c(c1)O[C@H](CN(C)C(=O)C1CCOCC1)[C@H](C)CN([C@@H](C)CO)S2(=O)=O | inactive: -3%
O=C(Nc1ccc([N+](=O)[O-])cc1)c1cccc([N+](=O)[O-])c1 | inactive: 3.12%
O=C(C1CCCN(S(=O)(=O)c2ccc(Br)s2)C1)N1CCCCCC1 (stereo unspecified) | inconclusive: 66.2%
Cc1nc(N2CCCC2)c2nnn(Cc3ccccc3Cl)c2n1 | active: 75.6%
Cc1cccc(CSC2=NCCN2C(=O)C2CC2)c1 | inconclusive: 72.2%
O=C(O)c1nc(N2CCCC2)ncc1Cl | inconclusive: 77.7%
COc1ccc(NC(=O)N(C)C[C@H]2Oc3ccc(NC(=O)c4ccncc4)cc3C(=O)N([C@H](C)CO)C[C@H]2C)cc1 | inactive: -5.95%
CCN(CC)CC(=O)n1c2c(c3ccccc31)CCCC2 | active: 124%
C[C@@H]1CN([C@H](C)CO)C(=O)c2cccc(NC(=O)Nc3ccc4c(c3)OCO4)c2O[C@H]1CN(C)Cc1ccc(C(=O)Nc2ccccc2N)cc1 | inconclusive: 67.5%
O=C1NC(c2ccccc2)=C(c2nc3ccccc3s2)C(c2ccc(O)cc2)N1 (stereo unspecified) | inconclusive: 127%
CCN(CC)CCCNc1nc2ccccc2c2nc(-c3ccncc3)nn12 | inconclusive: 68.6%
Cc1noc(C)c1S(=O)(=O)Nc1cccc2c1O[C@H](CN(C)C(=O)Nc1ccccc1)[C@H](C)CN([C@@H](C)CO)C2=O | inconclusive: 67.5%
C[C@H]1CN([C@@H](C)CO)C(=O)c2cccc(NS(=O)(=O)c3ccc(Cl)cc3)c2O[C@H]1CN(C)Cc1ccc(-c2ccccc2)cc1 | inconclusive: 75.1%
C[C@H](CO)N1C[C@H](C)[C@@H](CN(C)Cc2ccc(Cl)c(Cl)c2)Oc2ccc(NC(=O)CCC(F)(F)F)cc2CC1=O | inconclusive: 73.8%

SMILES | rescue of ATP level
Cc1ccc(-c2csc(NC(=O)c3ccc(S(=O)(=O)N4CCc5ccccc54)cc3)n2)cc1 | inactive: 25.2%
COc1ccc(-n2nc(C(=O)NCC(=O)N3CCC(C)CC3)c3ccccc3c2=O)c(OC)c1 | inconclusive: 80.1%
CNc1ccc(C(=O)OCC(=O)NCc2ccc3c(c2)OCO3)cc1[N+](=O)[O-] | inactive: -0.788%
O=C(C[C@H]1CC[C@H]2[C@@H](COC[C@H](O)CN2Cc2ccc(Oc3ccccc3)cc2)O1)N1CCCCC1 | inconclusive: 72.5%
C[C@@H]1CN([C@H](C)CO)C(=O)Cc2cc(N(C)C)ccc2O[C@H]1CN(C)Cc1ccc(C(=O)Nc2ccccc2N)cc1 | inconclusive: 55.7%
NC(=O)c1cccc(-c2ccnc3c2CC(C(=O)Nc2cccc(C(F)(F)F)c2)O3)c1 (stereo unspecified) | inconclusive: 77.6%
CS(=O)(=O)N1CCCCN2[C@H](C1)[C@@H](c1ccc(-c3cccc(C#N)c3)cc1)[C@@H]2CO | inactive: -2.16%
C[C@H](CO)N1C[C@H](C)[C@H](CN(C)C(=O)Nc2ccc(F)cc2)Oc2ncc(C#Cc3ccc(C(F)(F)F)cc3)cc2C1=O | inconclusive: 71.4%
COc1cccc(NC(=O)N(C)C[C@H]2Oc3ncc(C#Cc4ccc(F)cc4)cc3C(=O)N([C@@H](C)CO)C[C@@H]2C)c1 | inconclusive: 65.5%
O=C(NCc1ccco1)C(c1ccccc1)N(C(=O)Cc1cccs1)c1ccccc1F (stereo unspecified) | active: 97.5%
CSCCC(NS(=O)(=O)c1ccc(Cl)cc1)C(=O)OCC(=O)N1CCOCC1 (stereo unspecified) | inconclusive: 69.9%
O=C(CCc1ccccc1)Nc1ccc(N2CCOCC2)c(Cl)c1 | active: 113%
C[C@@H]1CN([C@H](C)CO)C(=O)c2cccc(NC(=O)Nc3ccc4c(c3)OCO4)c2O[C@@H]1CN(C)S(=O)(=O)c1ccc(Cl)cc1 | inconclusive: 66.5%
COCCNC(=S)N(CCc1c(C)[nH]c2ccc(F)cc12)Cc1cccs1 | inactive: -65.8%
COc1ccc(C#Cc2ccc3c(c2)O[C@H](CN(C)C(=O)Nc2cccc(OC)c2)[C@@H](C)CN([C@H](C)CO)S3(=O)=O)cc1 | inconclusive: 76%
CCSc1nnc(NC(=O)CSc2nc3c(cc2C#N)CCCC3)s1 | inactive: -16.5%
CCOC(=O)N1CCN(C(=O)c2ccc3c(=O)n(CCC4=CCCCC4)c(=S)[nH]c3c2)CC1 | active: 94.2%
N#CC1=C2N=C(N)c3ccccc3N2C2=C(C(=O)CCC2)C1c1ccc(Cl)cc1 (stereo unspecified) | inconclusive: 73.2%
